Source: the supplement of paper PMC10126150
Sequences with one replicate were seen in a single cluster, so their values are uncertain.

Test system: ATP
Assay: switch fluorescence ratio, 500 uM ATP over buffer (Cy3 cluster intensity, sum of 5 cycles each) (fold (ratio)); higher = stronger signal-on switching upon ATP binding; sequences stand for … in TCGTCGGCAGCGTCAGATGTGTATAAGAGACAGTTTTTTTTTTTTTTTTTTTTTTTTT…TC
Details: aptamer strand: ATP DNA aptamer (quencher-CACCTGGGGGAGTATTGCGGAGGAAGG + anchor), 100 nM annealed; ATP concentration: 500 uM; one replicate
Outline: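 Cy3-labelled switching-strand clusters on a modified Illumina MiSeq flow-cell were annealed to 100 nM quencher-labelled ATP aptamer and imaged first in selection buffer, then after 15 min with 500 uM ATP at 22 °C. NaOH stripping and re-annealing separated each of five buffer/ATP cycles, and clusters outside 100-1000 RFU were excluded. The fluorescence ratio sums target-cycle Cy3 intensity over buffer-cycle Cy3 intensity per cluster and averages it per switch-domain sequence.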
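Also: ATP exposure 15 min at 22 °C before imaging.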

Row | Sequence | switch fluorescence ratio
1 | AGGGATGACA | 1
2 | CCCTTGCTTC | 1.08
3 | CGGGTGCTTA | 1.49
4 | GGTTTGCCTT | 0.96
5 | AAAGACCTGT | 1.01
6 | ACGGACGC | 1.24
7 | CTGTATTGAG | 1
8 | ATATCTAAAA | 0.995
9 | TCTGCCGATG | 1
10 | TCTTCACCCG | 1.44
11 | GCAATTGTT | 1.03
12 | GCGCAAGTT | 1.06
13 | AAGATGCGGT | 0.999
14 | TAGCCACACA | 1.02
15 | TCTCGAGCTT | 1.13
16 | GGACTGAGCA | 1.06
17 | ATCATCTTT | 0.979
18 | GAGATAACGC | 0.999
19 | ACGTGTTCTC | 1.01
20 | GCAAAATTTG | 0.999
21 | CGTTAGTAGT | 1
22 | CATGAATAAA | 1
23 | CGGCTTTTTC | 2.35

Row | Sequence | switch fluorescence ratio
24 | GAACAAACTA | 1.02
25 | TGGTAGCACC | 0.995
26 | GTCTGGTTAC | 1.04
27 | ATCGCACAAT | 1.16
28 | ATAGTGACTG | 1.05
29 | TTCCATCCTG | 0.971
30 | CGGAGACTGT | 1.03
31 | GTTAATTCTT | 0.995
32 | TGGCTAGTAC | 1.14
33 | TGTGTAATGG | 1.02
34 | CCCGATTACC | 1.21
35 | TCTAGATA | 1
36 | CGACCCCCGA | 1.35
37 | GTGTAAAACC | 0.98
38 | CACTGGTCGG | 1.03
39 | CTTGTTGGGC | 1.03
40 | GCAGCTGATT | 1.02
41 | ACCTGATGGA | 0.995
42 | TGAAAAATA | 1.6
43 | TACAGCCGGA | 1.29
44 | ACTTGGTACC | 1
45 | CGGGACCTAG | 0.988
46 | AGGAAGCGTG | 1.02

Row | Sequence | switch fluorescence ratio
47 | GCTCTATCCA | 0.97
48 | AAGGGGAAAT | 1.05
49 | TGGGGTATTC | 0.999
50 | TTCGTGGTCT | 1.01
51 | CGAGCGGCA | 1.04
52 | GTCCGGAGCG | 3.12
53 | TATTCCATTT | 1.04
54 | GATTCCTATG | 1.02
55 | ATCTTCCTG | 1.14
56 | TCAAGTTTA | 1.01
57 | CAGAATTAGA | 1.02
58 | TTAATACAAT | 1.03
59 | GATCATGATT | 0.979
60 | TCGTGGGGG | 1.06
61 | CTCGGGTATA | 0.986
62 | TTCGTATTA | 0.992
63 | CAAAAAATGC | 1.04
64 | GGTTGGTCTG | 0.987
65 | AGGTGGTACT | 1.01
66 | TGTAATATTT | 0.973
67 | CTCGCCGGCG | 1
68 | GGACGCGAGG | 1.01
69 | TCAGAAATAA | 0.979

Row | Sequence | switch fluorescence ratio
70 | TCTCTAGTAG | 1.01
71 | AGGCAGAGGT | 0.984
72 | AACCGTTTGA | 1.02
73 | CAGTTTTTGT | 0.98
74 | TCCGGGATT | 1.06
75 | ACGTTACATA | 1.39
76 | CGTTCTGAGG | 0.974
77 | GAGTTTTTGC | 1.02
78 | GCTAGCAAAA | 1.02
79 | GGTCTCCCCT | 1.1
80 | TCGTCGGCAG | 1.05
81 | ATCTACCTGG | 1.07
82 | TTCCTCCATC | 1.35
83 | TTTAGTAGC | 0.965
84 | GAAGACTTGT | 0.981
85 | ACAGTCAT | 0.989
86 | GGGGACGGAG | 1.05
87 | TCAATCTGAT | 0.959
88 | GTAGGTGGAA | 0.983
89 | CCCTATTCGC | 1.04
90 | GCCGTGAGCC | 1.07
91 | GAAAACAATC | 0.985
92 | ATACATATTC | 1.03

Row | Sequence | switch fluorescence ratio
93 | GGGTTCTTGA | 0.964
94 | CGAGTCATTT | 1.01
95 | TCCACTACCC | 1.25
96 | GTAGGTATTG | 0.993
97 | GTGTTAGCCG | 1.05
98 | AAAGAAGACT | 0.93
99 | CTGGCGAGAG | 1.04
100 | CCATGACCCT | 1.04
101 | TAAGTAATCT | 0.981
102 | CGGAGTGAGA | 1.15
103 | AGGGAATGAC | 1.32
104 | TTGTACCACG | 1.02
105 | CTCAGAAGGA | 1
106 | GCACTTTTCA | 0.965
107 | TTATTAAGA | 1.03
108 | ACCACTCGGT | 0.988
109 | CTGGACATG | 1.14
110 | TGTTTTTCAT | 1
111 | GTTGTTGACG | 1.04
112 | ATGCCAAGGG | 1.05
113 | GTCGCCCATA | 1.01
114 | TGAGTGATGC | 1.1
115 | CGGCAAAGAT | 1.05

Row | Sequence | switch fluorescence ratio
116 | GCGATGGTA | 0.97
117 | TTTCAATGA | 1.01
118 | AAAAGGAGCT | 0.967
119 | AATAGGGCT | 0.961
120 | ACGTTACGAA | 1.42
121 | AGGATTAGAG | 1.01
122 | AGGTGGCTCT | 1
123 | GTCGTTGCGG | 0.973
124 | ACGGGAATTA | 1.03
125 | TAGTTCTCAG | 0.995
126 | TCTGGGCCCG | 1.02
127 | AACAGACTCT | 0.982
128 | TGTAACCAAG | 0.996
129 | GAATAAATGA | 0.985
130 | GCTTACATGT | 1
131 | CAGACTATTT | 1.01
132 | AATGGCGCTA | 0.968
133 | ATTAACTAGC | 0.988
134 | GAATATCCAG | 0.967
135 | TATACTGACA | 1.16
136 | TAGCTGGG | 0.99
137 | GGGTAGGAGA | 1.02
138 | CACGTTCTC | 1.07

Row | Sequence | switch fluorescence ratio
139 | CCTGATCGGA | 1.01
140 | GTTTGACGGT | 1.04
141 | ACGGAGATT | 1
142 | AAGATGGCTG | 0.902
143 | ACTCTGAACG | 1.1
144 | ATGCACATGT | 1.08
145 | CTGGTTGTTC | 1.06
146 | GATCATTCCG | 0.997
147 | AGGATTATTC | 0.969
148 | GGGTACCTCT | 1.02
149 | ATGGCCCCGG | 0.997
150 | TGTTTTCAAA | 0.989
151 | TGATTTGTGC | 0.989
152 | TCTCGTTAAG | 1.02
153 | CTGATAATGA | 1.03
154 | AAAAAATGAG | 0.998
155 | GATGACTTCG | 0.965
156 | TGGTGATACG | 1.01
157 | TCACGATTGC | 1.01
158 | TCAAGGTGCA | 1
